# Test results taken from PubChem BioAssay AID686979 (National Center for Advancing Translational Sciences (NCATS), 2013).
# The whole screen tested about 420,000 compounds, of which about 50,000 (12%) were called active. Inconclusive means that the source gave no clear call. Such entries were picked first, then a sample of the others. The call rests on the fitted dose curve; in most records, active means well fitted inhibition curve with a large enough effect; inconclusive means small, poorly fitted or top-dose-only effect; inactive means flat fitted curve, though single readings scatter. Potencies of inconclusive entries are left out as doubtful fits.
# Experiment: qHTS for Inhibitors of human tyrosyl-DNA phosphodiesterase 1 (TDP1): qHTS in cells in presence of CPT; further: nearly all actives have a fitted effect of over 55% in size
# Conditions: chicken DT40 Tdp1-/-;hTDP1 cells + 20 nM CPT, ATP luminescence, 48 h; activity change, negative = growth inhibition: at 46.2 µM (top of the series) unless noted
# Summary of the method: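 Chicken DT40 Tdp1-/- cells complemented with human TDP1, 400 cells/well, exposed to compounds plus 20 nM camptothecin for at least 48 h at 37 C; viability read as ATP content by CellTiter-Glo luminescence.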
# On the % scale 0 is the no-effect control and ±100 the full control effect; potency means the concentration at half of the fitted maximal effect; tags describe the fitted curve by direction and shape.
Structure (SMILES),Potency,"activity change, negative = growth inhibition"
N/C(=N\OS(=O)(=O)c1ccccc1)c1ccccn1,"inconclusive [inhibitor, single point]",
COCCn1c(SCC(=O)NC(=O)NC2CCCC2)nc2ccccc2c1=O,"inconclusive [inhibitor, single point]",
CC(=O)/C(=N/Nc1ccc(C)cc1)Sc1nnc(CCc2ccccc2)n1-c1ccccc1,,inconclusive: -12.7% [inhibitor]
COc1ccc(C(=O)NC2CCC(O)CC2)cc1S(=O)(=O)NCc1ccc(Cl)cc1 (configuration not stated),"inconclusive [inhibitor, single point]",
CCOc1cccc(C(=O)Nc2cnn(Cc3ccccc3)c2)c1,inactive,
CC(C)/C=N/Nc1nc(-c2ccc(Br)cc2)cs1,active: 23.1 µM,
CC(C)n1c(CN2CCN(C)CC2)nc2c1c(=O)n(C)c(=O)n2C,inactive,
CC(=O)c1ccc(NC(=S)N2CCN(c3cccc(Cl)c3)CC2)cc1,"inconclusive [inhibitor, single point]",
CC(C)Cc1ccc(CN2CCCC(NC(=O)c3cnc4ccccn4c3=O)C2)cc1 (configuration not stated),active: 23.1 µM,
CCOC(=O)C1CCCN(CC(=O)Nc2cc(C)c3c(=O)oc4ccccc4c3n2)C1 (configuration not stated),inactive,
Cc1cc(C)c2c(n1)sc1c(-c3ccccc3)c(C#N)c(N)nc12,"inconclusive [inhibitor, single point]",
CCc1cc(-c2n[nH]c(C)c2Oc2ccc(C(C)C)cc2)c(O)cc1O,"inconclusive [inhibitor, full curve, poor fit]",
CSCCC(NC(=O)COc1ccccc1)C(=O)N(C)CC(=O)Nc1ccc(Cl)cc1 (configuration not stated),"inconclusive [inhibitor, single point]",
COC(=O)c1c(C(=O)OC)c(C)n(Cc2ccco2)c1C,inactive,
Cc1ccc(C)c(N2CCN(C(=O)CCC(=O)N3CCOc4ccc(Cl)cc43)CC2)c1,active: 14.6 µM,
CCOC(=O)C1=Nc2ccccc2C1=[N+]=[N-],active: 4.61 µM,
Nc1ccc(C(=O)c2cccs2)cn1,inactive,
CCOc1ccc(OCCSc2nc(C)cc(=O)[nH]2)cc1,active: 11.6 µM,
Cc1ccccc1/C=N/Nc1ccc(Cl)nn1,"inconclusive [inhibitor, partial curve]",
COc1ccc([C@H]2CC(=O)C=C(c3ccc(Oc4ccccc4)cc3)C2)cc1OC,active: 10.3 µM,
CCn1cc([N+](=O)[O-])c(C(=O)Nc2nc(-c3ccc(C)c(C)c3)c(C)s2)n1,"inconclusive [inhibitor, single point]",
Cc1nnc(SCC(=O)N2CC(=O)Nc3ccccc32)n1Cc1ccccc1,inactive,
O=C(COc1ccccc1Br)NCCC1=CCCCC1,"inconclusive [inhibitor, single point]",
CCOC(=O)N1CCC(NC(=O)CNS(=O)(=O)c2ccc(Br)s2)CC1,"inconclusive [inhibitor, single point]",

Structure (SMILES),Potency,"activity change, negative = growth inhibition"
O=C(Nn1c(-c2ccccc2)nc2ccccc2c1=O)c1ccc([N+](=O)[O-])cc1,inactive,
CCN(CC)S(=O)(=O)c1cccc(NC(=O)c2ccc(-n3nc(C)cc3C)cc2)c1,"inconclusive [inhibitor, single point]",
CCN1C(=O)[C@@H]2[C@@H](c3ccc(-c4ccc(OC)cc4)cc3)N3CCC[C@@]3(C(=O)OC)[C@@H]2C1=O,"inconclusive [inhibitor, single point]",
CCc1cccc(C)c1NC(=O)Cn1nnc(-c2nc(-c3ccccc3F)no2)c1N,inactive,
CCCCCCC(O)(CCN1CCCCC1)c1ccccc1 (configuration not stated),inactive,
COc1cccc(/C=C2\SC(=S)N(NC(=O)c3ccncc3)C2=O)c1,"inconclusive [inhibitor, single point]",
O=C(N/N=C/C=C/c1ccccc1)c1cccs1,inactive,
COc1ccc(CNc2ncnc3ccc(-c4cccnc4)cc23)c(OC)c1,"inconclusive [inhibitor, single point]",
CCCOC(=O)c1ccc(NC(=O)c2cc(=O)[nH]c3ccccc23)cc1,inactive,
COc1ccc(CNc2ccc3c(c2)ncn3-c2ccccc2OC)cc1,"inconclusive [inhibitor, single point]",
C=C(C)CNC(=S)N/N=C/c1ccco1,active: 18.4 µM,
Cc1ccc2cn[nH]c2c1[N+](=O)[O-],inactive,
CCCOc1ccc(C2C(=O)N(C3CCC(C)CC3)CC(=O)N2Cc2cccc(OC)c2)cc1OC (configuration not stated),,inconclusive: -27.7% [inhibitor]
COc1ccc(-c2ccc(-c3noc(-c4ccccc4F)n3)c(OC)n2)cc1,"inconclusive [inhibitor, full curve, poor fit]",
COc1ccc(NS(=O)(=O)c2cc3c(cc2C)N(C(C)=O)CCO3)cc1,inactive,
O=C(CCCOC(=O)c1ccc(O)cc1O)c1ccccc1,"inconclusive [inhibitor, partial curve]",
NS(=O)(=O)c1ccc(N/N=C/c2ccccc2C(=O)O)c([N+](=O)[O-])c1,inactive,
COc1ccc(NC(=O)CS(=O)CC(=O)Nc2ccc(NC(C)=O)cc2)cc1 (configuration not stated),inactive,
COCCn1c(-c2ccc(C)cc2)nc2oc3cc(OC)ccc3c(=O)c2c1=O,inactive,
CN(C)C(=O)c1ccc(-c2nc(NCc3ccccc3)c3ccccc3n2)cc1,"inconclusive [inhibitor, single point]",
COc1ccc(CN2CCC3(CC2)c2ccccc2[C@@H](NC(=O)c2ccccc2)[C@@H]3O)cc1O,"inconclusive [inhibitor, single point]",
Cc1ccc(N(C(C)C(=O)Nc2ccc3c(c2)OCO3)S(C)(=O)=O)cc1 (configuration not stated),active: 13 µM,
COc1ccc(C2=NN(C(=O)CSc3ncccn3)C(c3cccc(OC)c3OC)C2)cc1 (configuration not stated),"inconclusive [inhibitor, single point]",
COc1ccc(CNC(=O)C[C@@H]2CC[C@@H](NS(=O)(=O)c3cccc(OC)c3)[C@@H](CO)O2)cc1,inactive,

Structure (SMILES),Potency,"activity change, negative = growth inhibition"
CCC(=O)OC1(C)C(=O)C=C2C=C(c3ccsc3)OC=C2C1=O (configuration not stated),"inconclusive [inhibitor, single point]",
C=CC[C@@H](CC(=O)N[C@H](CO)Cc1ccccc1)C(=O)N[C@@H](COC(=O)[C@@H](CC=C)CC(=O)OC(C)(C)C)Cc1ccccc1,active: 16.4 µM,
COc1ccc(CCNC(=O)c2ccc(Cn3c(=O)c4ccccc4n(Cc4cccc(F)c4)c3=O)cc2)cc1OC,active: 16.4 µM,
Cc1ccc(CC2C(=O)N(c3cc(Cl)ccn3)C(=O)C2C)cc1 (configuration not stated),,inconclusive: 0.881% [inhibitor]
COc1ccc(C)cc1COC(=O)c1[nH]c(C)c(C(C)=O)c1C,active: 20.6 µM,
COC(=O)c1ccc(CNC(=O)c2c3c(nc4ccccc24)CCN(Cc2ccccc2)C3)cc1,"inconclusive [inhibitor, single point]",
Cc1cc(Cl)ccc1NC(=O)c1ccc2c(c1)CCN2S(C)(=O)=O,inactive,
CC(C)c1ccc(NC(=O)C(=O)c2cn(CC(=O)N3CCCCC3)c3ccccc23)cc1,"inconclusive [inhibitor, single point]",
O=C(CN1CCCCC1)Nc1ccc(S(=O)(=O)c2ccc(NC(=O)CN3CCCCC3)cc2)cc1,active: 16.4 µM,
Cc1ccc(S(=O)(=O)NCc2ccccc2)cc1C(=O)N1CCN(S(=O)(=O)c2ccccc2)CC1,inactive,
COc1cccc(-c2nc(N3CCN(C)CC3)c3ccccc3n2)c1,"inconclusive [inhibitor, single point]",
O=C(Nc1ccc(F)cc1F)c1ccc(-n2cccn2)nc1,"inconclusive [inhibitor, partial curve]",
COc1cc(C(=O)Nc2nc(OC)c(-c3ccccc3)c(OC)n2)cc(OC)c1OC,"inconclusive [inhibitor, single point]",
C=CC(C)(C)c1[nH]c2ccccc2c1C1=C(O)C(=O)C(c2c[nH]c3c(CC=C(C)C)cccc23)=C(O)C1=O,active: 13.3 µM,
Cc1cc(C(F)F)n2ncc(C(=O)NCCc3ccccc3Cl)c2n1,"inconclusive [inhibitor, single point]",
COc1ccc(OC)c(-n2cc3c(=O)n(C)c(=O)n(C)c3c2)c1,active: 16.4 µM,
CCc1ccc(NC(=O)CCc2c(C)nn(-c3ccc(N4CCCC4)nn3)c2C)cc1,"inconclusive [inhibitor, single point]",
Cn1ccc2c(-c3ccccc3F)cc3c(c21)C1CCC3C1 (configuration not stated),inactive,
COc1cc(/C=N/N=C(N)N)ccc1OCc1ccc(Cl)cc1,active: 6.51 µM,
Cc1cccc(OCC(=O)NCC(=O)N/N=C/c2ccc([N+](=O)[O-])cc2)c1,inactive,
O=C(c1ccc(S(=O)(=O)Cc2ccccc2F)c([N+](=O)[O-])c1)N1CCCCCC1,"inconclusive [inhibitor, single point]",
CCOC(=O)Cc1csc(NC(=S)NC(=O)c2cc(OC)c(OC)c(OC)c2)n1,"inconclusive [inhibitor, single point]",
C=CCN(CC=C)S(=O)(=O)c1ccc(NC(=S)NC(=O)Cc2ccc(OC)cc2)cc1,"inconclusive [inhibitor, single point]",
CC(C)C[C@H]1CN([C@@H](Cc2ccc(O)cc2)CN2CCC[C@@H]2CN2C(=O)C(=O)NC[C@@H]2Cc2ccccc2)C(=O)C(=O)N1CC1CCCCCC1,"inconclusive [inhibitor, single point]",
